No constants are given. Whether binding was seen depends on the method and setting. Binding seen in cells or lysates may run through a third protein. Some binding calls cover weakened binding; strength is not graded here.
Experiments:
[1] = biological target: Myc-tagged human YOD1, full length (human) (UniProt Q5VVQ6); experiment: co-IP; HEK293T cells co-transfected, 24 h; lysates in IP buffer (20 mM Tris, 0.5% Triton X-100, 10% glycerol, 150 mM NaCl, 20 mM MgCl2, 1 mM EDTA, pH 7.5); IP with anti-Myc, blot with anti-Flag
[2] = biological target: Myc-tagged human YOD1 C160S, catalytically inactive (human) (UniProt Q5VVQ6); experiment: as above
[3] = biological target: T1, YOD1, endogenous mouse (mouse (endogenous in BMDMs and PMs)) (UniProt Q8CB27); experiment: co-IP; endogenous proteins in mouse BMDMs or PMs infected with MRSA for 4 h; specific antibodies and protein G plus-agarose, IP buffer
T1 sequence: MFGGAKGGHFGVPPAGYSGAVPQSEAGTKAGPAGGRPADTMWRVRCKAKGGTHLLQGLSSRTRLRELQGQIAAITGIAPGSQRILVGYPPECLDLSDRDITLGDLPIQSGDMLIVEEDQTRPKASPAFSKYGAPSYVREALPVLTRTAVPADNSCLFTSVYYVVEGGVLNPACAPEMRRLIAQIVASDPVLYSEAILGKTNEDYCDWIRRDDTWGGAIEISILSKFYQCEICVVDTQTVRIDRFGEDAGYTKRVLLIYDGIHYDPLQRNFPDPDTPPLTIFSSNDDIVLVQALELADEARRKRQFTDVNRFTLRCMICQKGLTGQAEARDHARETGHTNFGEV

By UniProt entry, the sequences of proteins in these tests, tags left out. Where a name states a change or a piece, a line headed by the entry shows the natural chain unless it says otherwise.
UniProt Q5VVQ6: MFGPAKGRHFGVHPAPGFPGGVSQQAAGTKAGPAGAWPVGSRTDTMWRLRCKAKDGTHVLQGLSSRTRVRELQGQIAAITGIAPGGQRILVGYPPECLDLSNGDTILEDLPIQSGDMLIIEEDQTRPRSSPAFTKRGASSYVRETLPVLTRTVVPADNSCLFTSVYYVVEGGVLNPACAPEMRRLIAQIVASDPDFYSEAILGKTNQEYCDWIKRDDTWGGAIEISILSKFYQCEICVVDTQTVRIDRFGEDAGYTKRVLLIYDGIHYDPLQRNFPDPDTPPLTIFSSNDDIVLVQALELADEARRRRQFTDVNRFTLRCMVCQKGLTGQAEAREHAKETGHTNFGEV
UniProt Q9ULZ3: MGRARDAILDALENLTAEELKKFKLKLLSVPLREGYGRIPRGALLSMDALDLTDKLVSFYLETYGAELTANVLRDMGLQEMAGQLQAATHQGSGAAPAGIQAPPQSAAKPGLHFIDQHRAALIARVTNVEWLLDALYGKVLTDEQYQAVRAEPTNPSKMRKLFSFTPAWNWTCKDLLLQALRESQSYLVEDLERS
UniProt P29466: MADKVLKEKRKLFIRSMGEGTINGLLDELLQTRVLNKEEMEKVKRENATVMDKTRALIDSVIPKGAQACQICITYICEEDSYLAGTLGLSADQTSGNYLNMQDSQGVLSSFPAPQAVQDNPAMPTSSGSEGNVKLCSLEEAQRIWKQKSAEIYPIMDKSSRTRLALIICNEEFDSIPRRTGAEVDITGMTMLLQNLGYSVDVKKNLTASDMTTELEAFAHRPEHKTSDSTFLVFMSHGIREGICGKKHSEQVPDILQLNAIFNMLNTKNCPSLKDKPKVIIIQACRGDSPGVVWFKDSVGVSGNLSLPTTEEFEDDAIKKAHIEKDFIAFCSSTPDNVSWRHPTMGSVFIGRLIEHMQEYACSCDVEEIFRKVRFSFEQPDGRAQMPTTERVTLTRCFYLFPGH
UniProt Q96P20: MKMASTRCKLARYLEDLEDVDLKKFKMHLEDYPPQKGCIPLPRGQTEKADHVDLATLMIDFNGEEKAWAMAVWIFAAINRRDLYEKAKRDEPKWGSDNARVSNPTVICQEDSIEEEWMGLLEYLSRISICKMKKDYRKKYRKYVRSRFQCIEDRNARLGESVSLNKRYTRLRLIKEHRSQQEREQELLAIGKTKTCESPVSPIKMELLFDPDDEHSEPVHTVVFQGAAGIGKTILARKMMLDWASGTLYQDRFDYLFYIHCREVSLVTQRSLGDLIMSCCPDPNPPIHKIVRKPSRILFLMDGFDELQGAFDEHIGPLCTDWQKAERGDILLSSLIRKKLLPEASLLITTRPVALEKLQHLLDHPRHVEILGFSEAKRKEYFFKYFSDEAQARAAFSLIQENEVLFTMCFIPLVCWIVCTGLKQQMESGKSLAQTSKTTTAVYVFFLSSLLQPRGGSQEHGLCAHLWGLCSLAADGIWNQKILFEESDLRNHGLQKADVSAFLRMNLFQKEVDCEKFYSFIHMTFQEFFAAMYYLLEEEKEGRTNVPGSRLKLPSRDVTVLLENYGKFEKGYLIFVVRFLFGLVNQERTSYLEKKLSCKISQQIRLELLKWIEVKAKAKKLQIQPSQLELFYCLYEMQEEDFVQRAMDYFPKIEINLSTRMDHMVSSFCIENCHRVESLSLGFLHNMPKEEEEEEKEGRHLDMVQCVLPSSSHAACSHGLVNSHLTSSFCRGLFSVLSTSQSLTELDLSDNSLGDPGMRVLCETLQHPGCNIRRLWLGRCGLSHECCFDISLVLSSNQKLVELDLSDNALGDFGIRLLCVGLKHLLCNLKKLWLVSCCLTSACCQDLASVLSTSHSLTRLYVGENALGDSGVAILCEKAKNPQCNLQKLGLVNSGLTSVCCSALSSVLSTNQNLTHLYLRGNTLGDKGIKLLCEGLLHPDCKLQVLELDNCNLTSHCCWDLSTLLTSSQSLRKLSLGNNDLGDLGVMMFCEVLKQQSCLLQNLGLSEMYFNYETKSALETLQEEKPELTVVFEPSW
UniProt Q8R4B8: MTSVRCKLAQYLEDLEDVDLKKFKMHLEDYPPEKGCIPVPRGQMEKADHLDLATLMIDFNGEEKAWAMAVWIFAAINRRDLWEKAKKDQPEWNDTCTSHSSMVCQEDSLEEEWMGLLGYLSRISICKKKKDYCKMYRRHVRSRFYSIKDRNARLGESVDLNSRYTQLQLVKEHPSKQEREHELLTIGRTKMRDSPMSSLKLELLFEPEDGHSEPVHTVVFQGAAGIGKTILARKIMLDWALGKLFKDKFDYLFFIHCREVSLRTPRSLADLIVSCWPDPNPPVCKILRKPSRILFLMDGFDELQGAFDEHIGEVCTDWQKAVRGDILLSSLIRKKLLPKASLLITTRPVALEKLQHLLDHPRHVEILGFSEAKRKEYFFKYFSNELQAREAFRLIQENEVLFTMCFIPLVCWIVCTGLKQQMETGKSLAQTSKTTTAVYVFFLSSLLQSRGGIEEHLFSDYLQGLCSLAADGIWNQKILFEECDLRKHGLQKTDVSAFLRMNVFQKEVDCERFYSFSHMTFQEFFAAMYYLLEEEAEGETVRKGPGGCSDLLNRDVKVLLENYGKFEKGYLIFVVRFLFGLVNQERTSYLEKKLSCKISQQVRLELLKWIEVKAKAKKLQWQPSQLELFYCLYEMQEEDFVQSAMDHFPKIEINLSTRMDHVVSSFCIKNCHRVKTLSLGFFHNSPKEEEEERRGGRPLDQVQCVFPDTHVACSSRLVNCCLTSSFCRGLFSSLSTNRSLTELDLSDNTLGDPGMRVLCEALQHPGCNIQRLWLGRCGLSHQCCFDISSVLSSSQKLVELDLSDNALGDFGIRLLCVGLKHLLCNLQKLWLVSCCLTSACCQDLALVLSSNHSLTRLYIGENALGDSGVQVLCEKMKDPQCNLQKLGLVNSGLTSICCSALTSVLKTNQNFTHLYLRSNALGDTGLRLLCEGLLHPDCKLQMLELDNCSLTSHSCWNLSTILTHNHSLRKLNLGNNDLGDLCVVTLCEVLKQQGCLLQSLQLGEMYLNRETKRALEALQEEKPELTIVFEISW

With “Flag-tagged human ASC (apoptosis-associated speck like protein containing a CARD) (from UniProt Q9ULZ3 1-195)” the binding [1] was “no binding”.

For “Flag-tagged human Caspase-1 (from UniProt P29466 1-404) (enzyme)”, the binding [1] was “no binding”.

With “Flag-tagged human NLRP3, full length (from UniProt Q96P20 1-1036)” the binding [1] was “binds” and the binding [2] was “binds”.

With “NLR-family pyrin domain-containing-3 (NLRP3), endogenous mouse (from UniProt Q8R4B8 1-1033)” the binding [3] was “binds”.

From paper PMC11126606
